The values that follow come from the supplement of paper PMC11417369.

± gives the standard deviation of the averaged measurements. Some of the results follow.

This assay has as its system PfAP2-EXP AP2 domain (GST-tagged). Kind of assay: gcPBM binding intensity (ln(normalized median fluorescence intensity)); higher = stronger DNA binding. Put shortly: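 After 1 h on an Agilent 4 × 180k array of primer-extended double-stranded 36-bp intergenic genomic probes and negative controls, bound GST-tagged P. falciparum DNA-binding domains were detected with Alexa488 anti-GST antibody and scanned at 488 nm. The domains had been expressed in E. coli, and binding took place in 1× PBS with 1% milk, 0.2 mg/ml BSA, 0.5% salmon testes DNA and 0.03% Triton X-100. Binding intensity is the highest Masliner-normalised natural-log median intensity across replicate spots of either probe orientation.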
Consider “AAAAAAAAAAAAAAAACACACATTTAGCAATCTACA [CACACA_site3706]”, for which the “gcPBM binding intensity (ln)” value is 8.67 ± 0.18.

Regarding “ATGATACTAAAAAATTGTACATATAACAAAAGGTAT [XGTACX_site2527]”, the “gcPBM binding intensity (ln)” value was determined as 8.88 ± 0.3. The same measure for “CATATATTTTGAAACACACACATATATAATATACAT [CACACA_site1158]”: 8.59 ± 0.35; for “TTATCATTATATAGTTGTACATATTTATTTATAAAA [XGTACX_site2310]”: 8.46 ± 0.53. The result for “TTTGTATAATACATGTGTACGTATTTTTATATAAAT [XGTACX_site8656]” reads 8.72 ± 0.34; that for “AGAACTAAAAGAACATGTACATAAATTCTAAATAAT [XGTACX_site4084]”, 8.55 ± 0.44. The same measure for “TATTTTGTTTTAAAAGTACACACTTTTAATTAGATT [CACACA_site1180]”: 8.46 ± 0.22; for “ATAACAAAATGAAGAGTGCATTACCAAGTGGGTAAA [GTGCAC_site9450]”: 8.93 ± 0.22. Turning to “TTAATTTGTTCTTACACACACATATAAATATATTTA [CACACA_site6676]”, the “gcPBM binding intensity (ln)” value was 8.71 ± 0.33.

Regarding “ATATTTAAGGCGTGTATGCACACGACTATTCCGTAT [CACACA_site1080]”, the “gcPBM binding intensity (ln)” value was 8.45 ± 0.31. The result for “CTGAAGGAAAAAGAAAGTACTTTTTTTTTTTTGAAG [XGTACX_site5973]” reads 8.3 ± 0.42; that for “ATGTTTTATAAAAGGCGTACACATATGCTTAAGTAA [XGTACX_site6232]”, 8.94 ± 0.46. The same measure for “CCTTTATTTTATATGTGTACTAAATTGTATATATAT [XGTACX_site8717]”: 8.81 ± 0.19.

With “AAAAAAAAAATATCATGTACAAATATAATAAAATTT [XGTACX_site3896]”, the “gcPBM binding intensity (ln)” value was determined as 8.38 ± 0.33. Turning to “TATAGCAAAAAATTTACACACATGTTTTTTCTATAC [CACACA_site325]”, the “gcPBM binding intensity (ln)” value was found to be 8.57 ± 0.38. Take “GGCATTTTATGAAGTAGTACCATAAATATTAAAGAT [XGTACX_site5287]”: the “gcPBM binding intensity (ln)” value worked out at 8.86 ± 0.33. On to “AATTAAAATAGTAATACACACTTCATAGGAAATGAT [CACACA_site5045]”, for which the “gcPBM binding intensity (ln)” value was found to be 8.21 ± 0.42. The result for “TATGTATCAAATAAATGTACATATATATATATATAT [XGTACX_site2189]” reads 10.1 ± 0.49; that for “AAATTTTTTATGAACACACAAATACACGCACTCAAA [CACACA_site7286]”, 8.91 ± 0.36; that for “TAAAATATATAAAACTGTACATTTTAAAGGCACAAC [XGTACX_site8342]”, 9.12 ± 0.38. On to “AATAATAAAATAAAGGCATGCACAATATGCTATAAA [TGCATGCA_site645]”, for which the “gcPBM binding intensity (ln)” value worked out at 9.19 ± 0.3. The same measure for “TTTTTTTTTTTTTGCACACACCATATTTATAGAAAT [CACACA_site5772]”: 8.76 ± 0.23; for TAAAATTAATTTCTGTTGCACTTATTATTAATTAAC: 8.84 ± 0.4; for “ATATTATACCCGTGTACACATTATAACCATATATAA [CACACA_site5933]”: 8.96 ± 0.23. On to “TATATGTATAGAAAATGTACATATAAATATATATAT [XGTACX_site3420]”, for which the “gcPBM binding intensity (ln)” value was determined as 9.265 ± 0.021. The result for “TTTTTACTATTTATATGACTAAAAATATATTGAATA [CACACA_negctrl_site188]” reads 8.14 ± 0.39; that for TAAATTAATAAACAAGTGCATATATATATATATATA, 10.2 ± 0.38; that for “GTCATATTAATATGTACACACATATTTATATTTATA [CACACA_site6798]”, 8.65 ± 0.22.

Turning to “CAATTTATTTTTATTACACACTATCCAAGTAATTTC [CACACA_site7402]”, the “gcPBM binding intensity (ln)” value is 8.51 ± 0.29. The same measure for “CAAGCACACGGACACACACACACACGCGCACGCACA [CACACA_site6307]”: 8.57 ± 0.45; for “TTTTATGTAACATCACGTACTTATATTTAAGTATTC [XGTACX_site7459]”: 8.79 ± 0.32; for “AATATAATATAATGCACACATAAAACAAAAAAAAAA [CACACA_site3012]”: 8.82 ± 0.47. The result for “AAATATATCATACAAAGTACTTGGAATTAATATATA [XGTACX_site8907]” reads 8.36 ± 0.43.

As to “TCTTTTAAATAACAACATAAATAAATAAATAAATAA [GTGCAC_negctrl_site319]”, the “gcPBM binding intensity (ln)” value was determined as 8.89 ± 0.071.

As to “GTTGATACATGAAGCTGTACATAATATTTGTCATTT [XGTACX_site8628]”, the “gcPBM binding intensity (ln)” value was determined as 8.62 ± 0.39.

Take “TAATTTTTCCAACTTTGTACAGATATATTAATAAAA [XGTACX_site7856]”: the “gcPBM binding intensity (ln)” value was determined as 8.37 ± 0.49.

As to “AAAAATAGACAAAAGAGTACAAGAAAAAAAGGGTTC [XGTACX_site7843]”, the “gcPBM binding intensity (ln)” value came to 9.01 ± 0.55. The same measure for “GGAAAATGAAAAACAAAAAAAAAAAAAAAAAAATGA [TGCATGCA_negctrl_site432]”: 8.41 ± 0.9; for “ATATTCCTACATACAACACACGACGTTCTCATAAGA [CACACA_site231]”: 8.71 ± 0.43; for “TCTTTTTAGATATATACACACCGTGTCTACCTATAC [CACACA_site7551]”: 8.52 ± 0.33.

Turning to “ACATCTGTTATTTGTGGTACTAAAAAAATATATAGT [XGTACX_site8322]”, the “gcPBM binding intensity (ln)” value was determined as 8.65 ± 0.23. The same measure for “TTACAATTAATAAAGTGTACTTAACTATTATATATA [XGTACX_site481]”: 8.13 ± 0.18; for “TTTTAAAGTTGTGAGCTTCATTTTTATTTATATGTA [CACACA_negctrl_site1505]”: 8.39 ± 0.5; for “ATATATATATATGTCTGTACATAAAAAATAATAAAT [XGTACX_site3122]”: 10 ± 0.36.
